In all, about 310,000 compounds went through this assay and about 14,000 (4.5%) showed an effect of 50% or more. The effect is printed as a negative number. The list shows a part of the results.
What follows are compounds tested against human ether-à-go-go-related gene (hERG) potassium channel (human, UniProt Q12809) (assay: primary screen, population patch clamp on CHO cells stably expressing hERG).
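Also: peak tail current of the secondary pulse compared with the same well before compound.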

Chain of human ether-à-go-go-related gene (hERG) potassium channel (Q12809 whole entry, looked up): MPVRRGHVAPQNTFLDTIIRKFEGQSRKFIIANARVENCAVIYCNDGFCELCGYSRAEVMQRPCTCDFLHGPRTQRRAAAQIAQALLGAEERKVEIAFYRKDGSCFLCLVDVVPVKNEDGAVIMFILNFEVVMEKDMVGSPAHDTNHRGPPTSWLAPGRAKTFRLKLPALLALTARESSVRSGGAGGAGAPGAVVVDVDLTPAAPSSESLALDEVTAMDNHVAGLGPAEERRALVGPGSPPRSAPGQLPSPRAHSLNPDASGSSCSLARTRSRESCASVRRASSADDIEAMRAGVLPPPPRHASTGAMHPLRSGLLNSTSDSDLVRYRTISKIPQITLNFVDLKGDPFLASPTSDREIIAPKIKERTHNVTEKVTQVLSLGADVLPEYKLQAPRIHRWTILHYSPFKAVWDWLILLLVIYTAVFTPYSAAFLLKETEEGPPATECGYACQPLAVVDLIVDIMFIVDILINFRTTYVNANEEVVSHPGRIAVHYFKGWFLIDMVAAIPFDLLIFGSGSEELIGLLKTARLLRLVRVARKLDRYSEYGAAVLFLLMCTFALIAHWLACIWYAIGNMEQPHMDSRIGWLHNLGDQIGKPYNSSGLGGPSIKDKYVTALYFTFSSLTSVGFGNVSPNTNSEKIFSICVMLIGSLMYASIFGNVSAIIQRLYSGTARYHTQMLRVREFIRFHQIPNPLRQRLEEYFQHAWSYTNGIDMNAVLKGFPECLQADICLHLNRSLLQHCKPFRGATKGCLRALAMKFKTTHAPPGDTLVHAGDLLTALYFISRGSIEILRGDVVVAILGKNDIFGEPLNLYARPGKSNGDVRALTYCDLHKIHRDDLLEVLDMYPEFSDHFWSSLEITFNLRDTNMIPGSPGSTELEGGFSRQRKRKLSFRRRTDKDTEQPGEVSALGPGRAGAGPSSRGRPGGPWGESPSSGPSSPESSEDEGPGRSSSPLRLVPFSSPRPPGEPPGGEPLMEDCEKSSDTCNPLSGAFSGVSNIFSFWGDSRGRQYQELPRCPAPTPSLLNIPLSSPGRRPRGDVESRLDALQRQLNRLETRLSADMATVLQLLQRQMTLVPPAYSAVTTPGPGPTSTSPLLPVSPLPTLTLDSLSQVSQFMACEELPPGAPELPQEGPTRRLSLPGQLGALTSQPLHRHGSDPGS

| Structure (SMILES) | hERG current change (%, negative = inhibition) at 10uM [%] |
| --- | --- |
| Cc1ccc(C2=N/C(=C\N3CCCCC3)C(=O)O2)cc1 | -7.6 |
| Cc1ccc(OCC(=O)N/N=C\c2cccs2)c([N+](=O)[O-])c1 | 1.33 |
| Cc1ccc(S(C)(=O)=O)cc1C(=O)NC(C)C1CC2CCC1C2 (stereo not shown) | 14.6 |
| C[C@H]1[C@H](C)CC[C@]2(C)CC[C@]3(C)C(=CC[C@@H]4[C@@]5(C)CC[C@@H](O)[C@](C)(C(=O)O)[C@@H]5CC[C@]43C)[C@H]12 | 11.6 |
| CC(NC(=O)C(=O)Nc1nccs1)c1ccccc1 (stereo not shown) | 15.4 |
| COC(=O)c1[nH]c2ccc(C)cc2c1NC(=O)C1=COCCO1 | 4.02 |
| COc1cccc(-c2csc(N3CCN(C(=O)Nc4ccc(Cl)cc4)CC3)n2)c1 | 9.04 |
| O=C(NCCc1ccc(F)cc1)N1CCOCC1 | 6.53 |
| O=C(CCc1cnccn1)NC1CCCc2c1cnn2-c1ccc(F)cc1F (stereo not shown) | -3.72 |
| CCN(CC(=O)Nc1ccc(NC(C)=O)cc1)C(=O)c1c(-c2c(F)cccc2Cl)noc1C | 23.2 |
| O=C(Nc1ccccc1C(=O)O)c1ccc(NC(=O)C2CC2)cc1 | 12.2 |
| Nc1nc(Nc2ccc(Cl)cc2)nc(NCCO)c1[N+](=O)[O-] | 1.44 |
| COc1cc(/C=N/NC(=O)Cn2cnc3ccccc3c2=O)ccc1O | 34.3 |
| CO/N=C(/CS(=O)(=O)c1ccc(C)cc1)c1ccc(OC)cc1 | 5.88 |
| Cc1cc2ncn(-c3ncnc4sc(C)c(C)c34)c2cc1C | -21.2 |
| CC(C)NC(=O)NC1C2CC3CC(C2)CC1C3 (stereo not shown) | 8.3 |
| O=C(C1CCN(S(=O)(=O)c2ccccc2F)CC1)N1CCc2ccccc2C1 | -27.8 |
| COCCCn1c(-c2ccc(S(=O)(=O)N3CCOCC3)cc2)csc1=Nc1ccccc1 | -11 |
| NS(=O)(=O)c1ccc(CCNC(=O)c2ccc(Cl)s2)cc1 | 1.25 |
| Cc1ccc(-c2ccc(/C=N/N=C3/NC(=O)C(CC(=O)O)S3)o2)c([N+](=O)[O-])c1 (stereo not shown) | 11.1 |
| CC(=O)c1c(C)[nH]c(C(=O)Nc2cccc(C)n2)c1C | 9.94 |
| Cc1cccc(NC(=S)N2CCC(O)CC2)c1C | 10.4 |
| C[C@H](NC(=O)N1CCn2c1nc1ccccc12)C(=O)NCc1ccccc1 | -13.6 |
| COC(=O)[C@H](Cc1ccccc1)NC(=O)Nc1ccc(S(N)(=O)=O)cc1 | 0.187 |
| O=C(COc1ccc(Br)cc1Cl)NC(=O)NCc1ccccc1 | -0.783 |
| COc1ccc(NC(=O)CCNS(=O)(=O)c2ccc3c(c2)CC(C)N3C(C)=O)cc1 (stereo not shown) | -2.85 |
| COc1ccc(C)cc1S(=O)(=O)N(CC(=O)Nc1cccc([N+](=O)[O-])c1)c1ccccc1 | -2.22 |
| COc1c(/C=N/NS(=O)(=O)c2ccc(C)cc2)c(CCN(C)C(C)=O)cc2c1OCO2 | 8.62 |

| Structure (SMILES) | hERG current change (%, negative = inhibition) at 10uM [%] |
| --- | --- |
| Cc1cccc(-c2nnc(SCC(=O)C(C)(C)C)n2C)c1 | -10 |
| O=C(Nc1cccc(Cl)c1)c1nc[nH]c1C(=O)N1CCN(c2ccccc2)CC1 | 8.06 |
| Cc1ccccc1NC(=O)Cc1nc(COC(=O)CCC(=O)c2ccccc2)cs1 | -39.7 |
| CCOP(=O)(c1ccc(N(C)C)cc1)C(O)c1cc(OC)c(OC)c(OC)c1 (stereo not shown) | 4.4 |
| O=C(C[C@H]1C(=O)N(Cc2ccccc2)C[C@@H]1Cc1ccccc1)Nc1ccccc1 | -4.41 |
| CCOC(=O)C1CCN(C(=O)c2cccc(S(=O)(=O)N(C)C3CCCCC3)c2)CC1 | -30.5 |
| CCc1nn(C(C)C(=O)NCc2cccc(Cl)c2)c(=O)c2cc3occc3n12 (stereo not shown) | 2.8 |
| COc1cc(OC)c(C(=O)CCC(=O)O)cc1OC | -2.19 |
| CC(=O)NCCNS(=O)(=O)c1ccc(C)c([N+](=O)[O-])c1 | 12.6 |
| CCCn1cnc2c(c1=O)c1nc3ccccc3nc1n2CCc1ccccc1 | 5.16 |
| CCCCn1c(N)c(N(CCOC)C(=O)c2cc(=O)[nH]c3ccccc23)c(=O)[nH]c1=O | 12.5 |
| Cl.O=C(c1ccco1)N1CCN(C(c2ccc(F)cc2)c2nnnn2Cc2cccs2)CC1 (stereo not shown) | -57 |
| Cc1ncc(CO)c(/C=N/NC(=O)c2ccc(Br)cc2)c1O | -1.67 |
| Cc1cc(C)c(C(=O)OCC(=O)NCc2cccs2)c(C)c1 | -3.84 |
| CN1C2CCC1CC(OC(c1ccccc1)c1ccccc1N)C2 (stereo not shown) | -68.5 |
| O=C(COc1ccccc1Cl)c1ccc2c(c1)CCCC2 | -0.256 |
| O=C(N/N=C\c1cc(Br)ccc1O)c1ccc(S(=O)(=O)N2CCCCC2)cc1 | 6.47 |
| CCCCN(CC)CCNC(=O)c1ccc2c(Cl)c3c(nc2c1)CCC3 | -30 |
| O=C(NCCN1CCOCC1)c1cc(Cl)ccc1[N+](=O)[O-] | 9.91 |
| O=C1CC(/C=C/c2ccccc2)=Nc2ccccc2N1 | 24.1 |
| COc1ccc(NC(=O)c2cn3c(nc4ccccc43)c(C#N)c2C)cc1 | 3.29 |
| CC1Cc2ccccc2N1CC(=O)NC(=O)NC1CCCC1 (stereo not shown) | -13.5 |
| COc1ccc(CC(=O)Nc2cccc(-c3csc(C)n3)c2)cc1 | 16.6 |
| COc1cccc(NC(=O)Cn2c(CCC(=O)O)ccc2-c2cccs2)c1 | 12.4 |
| O=S(=O)(c1ccccc1)N1CCNCC1 | 0.901 |
| CC1(C)NC(=O)N(CCOc2cccc(Cl)c2Cl)C1=O | -2.28 |
| CC(=O)O[C@H]1C[C@@H]2CC[C@@H]3[C@H](CC[C@@]4(C)[C@H]3C[C@H]([N+]3(C)CCCCC3)[C@@H]4OC(C)=O)[C@@]2(C)C[C@@H]1N1CCCCC1.[Br-] | 22.5 |
